{"source": "PubChem BioAssay AID624296", "about": "(National Center for Advancing Translational Sciences (NCATS), 2012)", "note": "About 9,900 (2.8%) of roughly 350,000 compounds were called active. The shares of active, inactive and inconclusive entries below differ from those in the screen. The call rests on the fitted dose curve; in most records, active means well fitted activation curve with a large enough effect; inconclusive means small, poorly fitted or top-dose-only effect; inactive means no such curve, though single readings can be large or run the other way. Potencies of inconclusive entries are left out as doubtful fits. Potency means the concentration at half of the fitted maximal effect; tags describe the fitted curve by direction and shape."}
{"experiment": "A quantitative high throughput screen for small molecules that induce DNA re-replication in MCF 10a normal breast cells; further: nearly all actives have a fitted effect of over 50% in size; on activity, positive = re-replication: % of control where 0% means no effect.", "conditions": "MCF 10A DNA re-replication, Hoechst nuclear intensity, 48 h; activity, positive = re-replication: at 46.1 µM (top of the series)"}
{"smiles": "C=C1CC[C@H](O)C/C1=C/C=C1\\CCC[C@]2(C)[C@@H]([C@H](C)/C=C/[C@H](C)C(C)C)CC[C@@H]12", "Potency": "inconclusive [activator, single point]"}
{"smiles": "CNC(=O)c1ccsc1NC(=O)c1ccc2c(c1)CCCC2", "Potency": "inconclusive [activator, partial curve, poor fit]"}
{"smiles": "O=C(CCNC(=O)c1ccc(Br)cc1)Nc1ncccc1O", "activity, positive = re-replication": "inactive: -7.42%"}
{"smiles": "COc1cc(/C=C(\\C#N)C(=O)Nc2cccc(C(=O)O)c2)ccc1OCc1ccc(Cl)cc1", "activity, positive = re-replication": "inactive: 0.779%"}
{"smiles": "N#CCCN(CCC#N)S(=O)(=O)c1ccc(C(=O)Nc2nnc(C3=COCCO3)o2)cc1", "activity, positive = re-replication": "inactive: -2.37%"}
{"smiles": "CCOc1ccc(CN2CCN(C/C=C/c3ccc(OC)cc3)CC2CCO)cc1", "note": "(centres undefined)", "Potency": "inconclusive [activator, partial curve]"}
{"smiles": "Cc1[nH][nH]c(=O)c1C(c1ccc(-c2ccc(Cl)c(Cl)c2)o1)c1c(C)[nH][nH]c1=O", "Potency": "active: 2.91 µM"}
{"smiles": "CC(C(=O)Nc1ccc(OCc2ccccc2)cc1)N1CCCC1", "note": "(centres undefined)", "Potency": "inconclusive [activator, single point]"}
{"smiles": "O=C(OCC(=O)N1CCCCC1)c1c[nH]c2ccccc12", "activity, positive = re-replication": "inactive: -0.112%"}
{"smiles": "CCOC(=O)/C=C/C(=O)Nc1ccc(-c2nnc3n2CCCCC3)cc1", "Potency": "inconclusive [activator, single point]"}
{"smiles": "O=C(Nc1ccc(S(=O)(=O)N2CCOCC2)cc1)c1ccc(Cl)c([N+](=O)[O-])c1", "Potency": "inconclusive [activator, single point]"}
{"smiles": "c1ccc2c(c1)nnn2Cc1nnc2sc(-c3ccncc3)nn12", "activity, positive = re-replication": "inactive: -23%"}
{"smiles": "CCOC(=O)c1cnn(-c2nc(SC)nc3sc4c(c23)CCCC4)c1N", "Potency": "inconclusive [activator, single point]"}
{"smiles": "COc1ccccc1OC(=O)c1ccc(SC)cc1OC", "Potency": "inconclusive [activator, partial curve, poor fit]"}
{"smiles": "O=C(Nc1ccc(N2CCN(C(=O)c3cccs3)CC2)c(Cl)c1)c1cccnc1", "activity, positive = re-replication": "inactive: 1.78%"}
{"smiles": "C[C@H](NC(=O)c1nc[nH]c1C(=O)N[C@@H](Cc1ccccc1)C(=O)OC(C)(C)C)C(=O)OCc1ccccc1", "activity, positive = re-replication": "inconclusive: 55.8% [activator]"}
{"smiles": "Cc1ccc(OCCC(=O)OCC(=O)Nc2ccccc2)cc1", "Potency": "inconclusive [activator, single point]"}
{"smiles": "Cc1[nH]n(-c2ncc(-c3ccccc3)s2)c(=O)c1C(c1ccc(Cl)cc1)C(C#N)C#N", "note": "(centres undefined)", "activity, positive = re-replication": "inactive: 18.5%"}
{"smiles": "COc1ccc(NS(=O)(=O)c2cc(NC(=O)c3ccc(S(=O)(=O)N(C)C)cc3)ccc2N2CCOCC2)cc1", "activity, positive = re-replication": "inactive: 1.21%"}
